Laboratory results reported in PubChem BioAssay (NCATS).
The shares of active, inactive and inconclusive entries below differ from those in the screen. A potency beside an inconclusive call is a rough fit, not a confirmed value. Activity calls are given as the source filed them. Calls follow the shape of the dose curve; as a rule, active = well fitted inhibition curve with a large enough effect; inconclusive = small, poorly fitted or top-dose-only effect; inactive = no such curve, though single readings can be large or run the other way.

Experiment: qHTS assay to identify inhibitors of the type 1 interferon - major histocompatibility complex class I in skeletal muscle: Counter screen cell viability and HiBit confirmation (AID 1347412); also: nearly all actives have a fitted effect of over 60% in size
Conditions: iHSKM muscle cells + IFN-b, HiBiT or CellTiter-Glo, 24 h; HiBiT
Source text: Assay Submitter (PI): Travis B. Kinder Ph.D. & James Inglese Ph.D. Assay Development and Screening Technology Laboratory (ADST) National Center for Advancing Translational Sciences (NCATS), Rockville, MD National Institute of Health (NIH), Bethesda, Maryland Idiopathic inflammatory myopathies, collectively referred to as myositis, are a group of rare autoimmune diseases characterized by skeletal muscle inflammation, weakness, and usually accompanied by systemic pathologies of the skin, lungs, or vasculature. Current immunosuppressive therapies and glucocorticoids are often not curative and are accompanied by harsh side effects, especially in children with juvenile myositis. We initiated a drug repurposing and development program to identify more targeted, less toxic therapeutics to treat myositis. Although its cause is not known, muscle from a subset of patients have an abundance of the inflammatory type 1 interferon (IFN) and a down-stream product major histocompatibility complex class I (MHC class I), which are both thought to contribute to damage and weakness. We conducted quantitative high throughput screening on 6,576 compounds (4,679 unique) through a series of cell-based assays to identify those that inhibit the IFN-stimulated expression of MHC class I in muscle precursor cells (myoblasts). The compound identification and evaluation strategy utilized a primary screen with reporter-tagged MHC class I in genome-engineered myoblasts, ATP content counter screen for viability, HLA-ABC immunofluorescence secondary screen, and HLA-B RT-qPCR tertiary screen. The primary screen utilized CRISPR/Cas9 genome-engineering of immortalized human myoblasts, C25cl48, where a pro-luminescent reporter HiBit was fused to the C-terminus of endogenous MHC class I allele HLA-B*08:01 (HLA-B HiBit myoblasts). HiBit is an 11 amino acid fragment of NanoLuc luminescent reporter (Promega Corporation), and when complexed to the larger LgBit fragment, the reconstituted enzyme produces light in the presence of furimazine substrate (Schwinn et al., 2018). Briefly, HLA-B HiBit myoblasts were plated into 1536-well plates, treated with 4.0 ng/ml human IFN-beta and 650 inhibitory compounds identified from primary screening in a 12-point, 1:3 titration with a high final concentration of 46 uM. Compounds were pinned into duplicate plates, with one for HiBit confirmation and one for ATP content viability assay. After 24 hrs of treatment, cells were assayed by either Nano-Glo HiBiT Lytic Detection System (Promega) or CellTiter Glo (Promega), and luminescence measured by a ViewLux 1430 Ultra HTS (Perkin Elmer). References: Schwinn MK, Machleidt T, Zimmerman K, Eggers CT, Dixon AS, Hurst R, Hall MP, Encell LP, Binkowski BF, Wood K V. 2018. CRISPR-Mediated Tagging of Endogenous Proteins with a Luminescent Peptide. ACS Chem Biol 13:467-474. doi:10.1021/acschembio.7b00549
PROTOCOL TABLE (as described by Inglese et al., 2007) SEQUENCE No. (e.g., 1, 2, 3, etc.); […] (e.g., Cells, Incubation, Reagent, etc.); VALUE; DESCRIPTION 1a; Cells; 5 uL; Use a Multidrop Combi (Thermo Scientific) to seed 300 cells/well into 16 Greiner 1536 well white/solid bottom, high base, TC plates in 5 ul/well of iHSKM growth medium (GM) without dexamethasone into columns 1+2. Add metal lids with gas-exchange holes 1b; Cells; 5 uL; Use a Multidrop Combi (Thermo Scientific) to seed 300 cells/well into 16 Greiner 1536 well white/solid bottom, high base, TC plates in 5 ul/well of iHSKM GM without dexamethasone + 4 ng/ml IFN-b into columns 3 - 48. Add metal lids with gas-exchange holes 2; Incubate; 1 hr; Incubate at 37 C, 5% CO2, 95% RH 3; Compounds; 23 nl; Use Pin Tool (Wako) to transfer DMSO control, 92 uM final digitonin cytotoxic control, ruxolitinib IFN-b inhibitor control [High Concentration = 80 uM final, 16-pt, 1:2 in duplicate], and library compounds in DMSO. […]
% is scaled to controls: 0 for no effect and ±100 for the full control effect; potency is read from the fitted curve at half-maximal effect; tags tell the direction and shape of the fitted curve.

| Structure (SMILES) | Potency |
| --- | --- |
| CCC(=O)N1CCN(c2ccc(-n3c(=O)ccc4cnc5ccc(-c6cnc7ccccc7c6)cc5c43)cc2C(F)(F)F)CC1 | inconclusive: 0.249 µM [inhibitor, full curve] |
| COc1c(C)cnc(Cn2cnc3c(Cl)nc(N)nc32)c1C | active: 0.222 µM |
| COc1cc2c(c(OC)c1OC)-c1ccc(OC)c(=O)cc1[C@@H](NC(C)=O)CC2 | inconclusive: 0.249 µM [inhibitor, full curve] |
| C[C@@H](NCc1cc2ccccc2[nH]1)c1cccc2ccccc12 | inconclusive: 44.3 µM [inhibitor, single point] |
| c1nc2nc(Nc3ccc(N4CCOCC4)cc3)nc(NC3CCCCC3)c2[nH]1 | active: 6.25 µM |
| Cn1cc(-c2[nH]c3cc(NC(=O)[C@H](N)C4CCCCC4)cc4c3c2C=NNC4=O)cn1 | inconclusive: 3.94 µM [inhibitor, partial curve] |
| CCCCc1oc2ccc(NS(C)(=O)=O)cc2c1C(=O)c1ccc(OCCCN(CCCC)CCCC)cc1 | inconclusive: 49.7 µM [inhibitor, single point] |
| CC1(O)CC(c2nc(-c3ccc4ccc(-c5ccccc5)nc4c3)c3c(N)nccn23)C1 (stereo unspecified) | inconclusive: 5.57 µM [inhibitor, partial curve] |
| CCCCC(=O)O[C@]1(C(=O)CO)[C@@H](C)C[C@H]2[C@@H]3CCC4=CC(=O)C=C[C@]4(C)[C@@]3(F)[C@@H](O)C[C@@]21C | inconclusive: 0.005 µM [inhibitor, full curve, poor fit] |
| COc1cccc2nc(-c3cccs3)nc(NN3C(=O)C=C(C)C3=O)c12 | active: 2.79 µM |
| CNC(=O)c1cc(Oc2ccc(NC(=O)Nc3ccc(Cl)c(C(F)(F)F)c3)cc2)ccn1 | inconclusive: 27.9 µM [inhibitor, partial curve] |
| CSc1cccc(Nc2ncc3cc(-c4c(Cl)cccc4Cl)c(=O)n(C)c3n2)c1 | inconclusive: 2.49 µM [inhibitor, full curve] |
| Nc1ccccc1NC(=O)c1ccc(CNc2nccc(-c3cccnc3)n2)cc1 | active: 3.94 µM |
| C=CC(=O)Nc1cccc(Oc2nc(Nc3ccc(N4CCN(C)CC4)cc3OC)ncc2Cl)c1 | inconclusive: 44.3 µM [inhibitor, single point] |

Same assay, conditions: iHSKM muscle cells + IFN-b, HiBiT or CellTiter-Glo, 24 h; HiBiT; at 45.9 µM (top of the series)

| Structure (SMILES) | activity change, negative = inhibition |
| --- | --- |
| COc1c(Cl)cc2c([nH]c3cnccc32)c1NC(=O)c1cccnc1C | inactive: -23.1% |
| NC(=NCc1ccccc1)NC(=O)c1nc(Cl)c(N)nc1N | inactive: -27.7% |
| CC(C)(N)c1ccc(-c2nc3ccccc3nc2-c2ccccc2)cc1 | inactive: 23.9% |
| CCCCc1oc2ccc(NS(C)(=O)=O)cc2c1C(=O)c1ccc(OCCCN(CCCC)CCCC)cc1 | inactive: -10.2% |
| CNC(=O)c1ccc2c(C(=Nc3cccc(CN(C)C)c3)c3ccccc3)c(O)[nH]c2c1 | inactive: -0.844% |
| CCC(=O)O[C@]1(C(=O)SCF)[C@H](C)C[C@H]2[C@@H]3C[C@H](F)C4=CC(=O)C=C[C@]4(C)[C@@]3(F)[C@@H](O)C[C@@]21C | inactive: -26.7% |
| Fc1ccc([C@@H]2CCNC[C@H]2COc2ccc3c(c2)OCO3)cc1 | inactive: 26.1% |

Same assay, conditions: iHSKM muscle cells + IFN-b, HiBiT or CellTiter-Glo, 24 h; Viability

| Structure (SMILES) | Potency |
| --- | --- |
| CCC(=O)N1CCN(c2ccc(-n3c(=O)ccc4cnc5ccc(-c6cnc7ccccc7c6)cc5c43)cc2C(F)(F)F)CC1 | inconclusive: 0.991 µM [cytotoxic, full curve] |
| COc1c(C)cnc(Cn2cnc3c(Cl)nc(N)nc32)c1C | inconclusive: 3.13 µM [cytotoxic, full curve] |
| COc1cc2c(c(OC)c1OC)-c1ccc(OC)c(=O)cc1[C@@H](NC(C)=O)CC2 | inconclusive: 0.198 µM [cytotoxic, full curve] |
| C[C@@H](NCc1cc2ccccc2[nH]1)c1cccc2ccccc12 | inconclusive: 39.4 µM [cytotoxic, single point] |
| c1nc2nc(Nc3ccc(N4CCOCC4)cc3)nc(NC3CCCCC3)c2[nH]1 | inconclusive: 24.9 µM [cytotoxic, partial curve] |
| Cn1cc(-c2[nH]c3cc(NC(=O)[C@H](N)C4CCCCC4)cc4c3c2C=NNC4=O)cn1 | inconclusive: 6.25 µM [cytotoxic, partial curve] |
| CC(C)(N)c1ccc(-c2nc3ccccc3nc2-c2ccccc2)cc1 | inconclusive: 31.3 µM [cytotoxic, single point] |
| Cc1cc(Nc2nc(N[C@@H](C)c3ccc(F)cc3)c(C#N)cc2F)n[nH]1 | inconclusive: 2.79 µM [cytotoxic, full curve] |
| CCCCc1oc2ccc(NS(C)(=O)=O)cc2c1C(=O)c1ccc(OCCCN(CCCC)CCCC)cc1 | inconclusive: 49.7 µM [cytotoxic, single point] |
| CSc1cccc(Nc2ncc3cc(-c4c(Cl)cccc4Cl)c(=O)n(C)c3n2)c1 | inconclusive: 1.76 µM [cytotoxic, full curve] |
| Nc1ncnc2c1c(-c1cccc(OCc3ccccc3)c1)cn2C1CC(CN2CCCC2)C1 (stereo unspecified) | inconclusive: 44.3 µM [cytotoxic, single point] |
| CN1CCN(c2cc(C(=O)Nc3ccc4c(c3)-c3c(c(C(N)=O)nn3-c3ccc(F)cc3)CC4)c(Cl)cn2)CC1 | active: 27.9 µM |
| C=CC(=O)Nc1cccc(Oc2nc(Nc3ccc(N4CCN(C)CC4)cc3OC)ncc2Cl)c1 | inconclusive: 27.9 µM [cytotoxic, partial curve, poor fit] |

Same assay, conditions: iHSKM muscle cells + IFN-b, HiBiT or CellTiter-Glo, 24 h; Viability; at 45.9 µM (top of the series)

| Structure (SMILES) | activity change, negative = inhibition |
| --- | --- |
| CCCCc1oc2ccc(NS(C)(=O)=O)cc2c1C(=O)c1ccc(OCCCN(CCCC)CCCC)cc1 | inconclusive: -30.5% [cytotoxic] |
| CC1(O)CC(c2nc(-c3ccc4ccc(-c5ccccc5)nc4c3)c3c(N)nccn23)C1 (stereo unspecified) | inactive: -13.8% |
| CCCCC(=O)O[C@]1(C(=O)CO)[C@@H](C)C[C@H]2[C@@H]3CCC4=CC(=O)C=C[C@]4(C)[C@@]3(F)[C@@H](O)C[C@@]21C | inactive: 11.3% |
| COc1cccc2nc(-c3cccs3)nc(NN3C(=O)C=C(C)C3=O)c12 | inactive: 41.4% |
| CNC(=O)c1cc(Oc2ccc(NC(=O)Nc3ccc(Cl)c(C(F)(F)F)c3)cc2)ccn1 | inactive: -24% |
| Cc1ccc(-c2ncn(-c3ccc(Nc4nccc(-c5cccc(N6CCOCC6)c5)n4)cc3)n2)cn1 | inactive: -8.69% |
| Fc1ccc([C@@H]2CCNC[C@H]2COc2ccc3c(c2)OCO3)cc1 | inactive: -29.2% |
